{
  "source": "PubChem BioAssay AID1347073",
  "about": "(National Center for Advancing Translational Sciences (NCATS), 2019)",
  "note": "In all, about 45,000 compounds went through this assay and about 200 (0.44%) were called active. Not shown: some 7% with an inconclusive outcome. Calls come from the whole dose curve; as a rule, active = well fitted activation curve with a large enough effect; inconclusive = small, poorly fitted or top-dose-only effect; inactive = no such curve, though single readings can be large or run the other way. Some of the results follow. Potency is the fitted concentration of half-maximal effect.",
  "data": [
    {"assay": "qHTS of TDP-43 Inhibitors: NCGC Sytravon Library Screen; note: nearly all actives have a fitted effect of over 55% in size; for growth rescue (activation): 0% is about no effect", "settings": "yeast TDP-43 toxicity rescue, BacTiter-Glo growth, 24 h; series mostly up to 46.1 µM; growth rescue (activation): at the top concentration", "procedure,_shortened": "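TDP-43-expressing yeast, pregrown in raffinose, seeded at OD600 0.02 in galactose medium with compound for 24 hr at 30 deg C. Growth read by BacTiter-Glo luminescence, so rescue of toxicity appears as activation.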", "values": [
      {"smiles": "C/C(=N\\Nc1nc2ccccc2[nH]1)c1ccc2c(c1)OCO2", "growth rescue (activation)": "inactive: 0.344%"},
      {"smiles": "Cc1cc(OCC(=O)N[C@@H](Cc2ccccc2)c2nc3ccccc3[nH]2)ccc1Cl", "growth rescue (activation)": "inactive: 11.5%"},
      {"smiles": "CCN(CC)S(=O)(=O)c1ccc(-c2csc(C)n2)cc1", "growth rescue (activation)": "inactive: 14.4%"},
      {"smiles": "CCC(CC)c1nnc(NC(=O)CS(=O)(=O)c2ccc(C)cc2)s1", "growth rescue (activation)": "inactive: -3.23%"},
      {"smiles": "CCOc1ccc(OCC)c(Nc2nc3ccc(Cl)cc3n3cnnc23)c1", "growth rescue (activation)": "inactive: 15.4%"},
      {"smiles": "COCC(O)CNc1ccccc1", "note": "(stereo unspecified)", "growth rescue (activation)": "inactive: -27.5%"},
      {"smiles": "O=C(NC1CCCC1)C1CCCN(S(=O)(=O)c2ccc(F)cc2)C1", "note": "(stereo unspecified)", "growth rescue (activation)": "inactive: 16.3%"},
      {"smiles": "CCOC(=O)C1CCN(C(=O)c2cc3c(=O)n4cccc(C)c4nc3s2)CC1", "growth rescue (activation)": "inactive: 21.7%"},
      {"smiles": "CC1CCCN(C(=O)Cn2nnc(-c3ccc(F)cc3)n2)C1", "note": "(stereo unspecified)", "growth rescue (activation)": "inactive: -2.77%"},
      {"smiles": "Cn1ccnc1C(O)(c1ccccc1)c1nccn1C", "growth rescue (activation)": "inactive: 9.85%"},
      {"smiles": "CS(=O)(=O)N1CCC(C(=O)N2CCN(c3ccccc3)CC2)CC1", "growth rescue (activation)": "inactive: -4.9%"},
      {"smiles": "CCC(C)[C@H](NC(=O)Nc1ccc2c(c1)OCCO2)C(=O)OC", "note": "(stereo partly specified)", "growth rescue (activation)": "inactive: 2.93%"},
      {"smiles": "CCOC(=O)N(C)c1c(CC)nc2c(OCCC3CCCCC3)cccn12", "growth rescue (activation)": "inactive: 0.826%"},
      {"smiles": "CC1CN(c2ccc([N+](=O)[O-])c(NCCOc3ccccc3)c2)CCN1", "note": "(stereo unspecified)", "growth rescue (activation)": "inactive: 22.9%"},
      {"smiles": "CCCCC(=O)NNC(=S)NCc1ccccc1", "growth rescue (activation)": "inactive: 1.45%"},
      {"smiles": "COc1ccccc1NC(=O)C1CCCN1C(=O)Nc1ccc(F)cc1", "note": "(stereo unspecified)", "growth rescue (activation)": "inactive: -2.94%"},
      {"smiles": "COc1ccccc1OC(C)C(=O)Nc1ccc(S(=O)(=O)N2CCN(C)CC2)cc1", "note": "(stereo unspecified)", "growth rescue (activation)": "inactive: 16.9%"},
      {"smiles": "CC(Sc1nnc2c(n1)[nH]c1ccccc12)C(=O)NC1CCCCC1", "note": "(stereo unspecified)", "growth rescue (activation)": "inactive: -6.81%"},
      {"smiles": "C[C@H](NC(=O)c1cc2c(cn1)[nH]c1ccccc12)C(=O)O", "growth rescue (activation)": "inactive: -9.48%"},
      {"smiles": "O=C(COc1ccccc1[N+](=O)[O-])N/N=C/c1ccc(O)c([N+](=O)[O-])c1", "growth rescue (activation)": "inactive: -11.7%"},
      {"smiles": "CC(=O)N1CCCN(Cc2nc(C3(c4ccc(C)cc4)CCCC3)no2)CC1", "growth rescue (activation)": "inactive: -0.789%"},
      {"smiles": "O/N=C/c1ccc(OCc2ccccc2)c(Cl)c1", "Potency": "active: 10 µM"},
      {"smiles": "N#Cc1cc2cc3c(cc2nc1SCC(=O)N1CCOCC1)OCCO3", "growth rescue (activation)": "inactive: 1.77%"},
      {"smiles": "CCc1ccccc1NC(=O)CCCN1C(=O)C2CC=CCC2C1=O", "note": "(stereo unspecified)", "growth rescue (activation)": "inactive: 14.6%"},
      {"smiles": "Cc1nc2ccccn2c1/C(O)=C1\\C(=O)C(=O)N(CCN(C)C)C1c1ccco1", "note": "(stereo unspecified)", "growth rescue (activation)": "inactive: 9.3%"},
      {"smiles": "COC(=O)c1cn(Nc2ncc(C(F)(F)F)cc2Cl)c(=O)c2ccccc12", "growth rescue (activation)": "inactive: 26.9%"},
      {"smiles": "Clc1ccccc1-c1nnc(-c2cccs2)o1", "growth rescue (activation)": "inactive: 2.32%"},
      {"smiles": "Cc1ccc(-c2csc3nc(SCC(N)=O)n(Cc4ccccc4)c(=O)c23)cc1", "growth rescue (activation)": "inactive: 0.345%"},
      {"smiles": "CC(=O)Nc1ccc(S(=O)(=O)N2CCSC2)cc1", "growth rescue (activation)": "inactive: 5.65%"},
      {"smiles": "CCOC(=O)NC(NC(=S)Nc1ccccc1OC)C(Cl)(Cl)Cl", "note": "(stereo unspecified)", "growth rescue (activation)": "inactive: 5.96%"},
      {"smiles": "NN/C(=C\\[N+](=O)[O-])Nc1ccccc1", "growth rescue (activation)": "inactive: -6.58%"},
      {"smiles": "CC1(C)CNC(=O)c2sc(NC(=O)c3ccccc3)nc2C1", "growth rescue (activation)": "inactive: 26.3%"},
      {"smiles": "COc1cccc(C(=O)N2CCN(C3CCN(Cc4ccccc4)CC3)CC2)c1OC", "growth rescue (activation)": "inactive: -13.2%"},
      {"smiles": "CC(=O)Nc1cccc(-c2ccnc3c2CC(C(=O)NCC2CCOCC2)O3)c1", "note": "(stereo unspecified)", "growth rescue (activation)": "inactive: -4.57%"},
      {"smiles": "O=C1OCCC1N1C(=O)c2ccccc2S1(=O)=O", "note": "(stereo unspecified)", "growth rescue (activation)": "inactive: -4.69%"},
      {"smiles": "CCC(Sc1nc(C)cc(C)n1)C(=O)Nc1ccc(S(N)(=O)=O)cc1", "note": "(stereo unspecified)", "growth rescue (activation)": "inactive: 4.01%"},
      {"smiles": "O=C(NCCCn1ccnc1)c1ccc(Br)cc1", "growth rescue (activation)": "inactive: -6.44%"},
      {"smiles": "CCOCCCN(C(=O)c1snc(C(N)=O)c1N)C(C(=O)NC(C)(C)C)c1ccc(Cl)cc1", "note": "(stereo unspecified)", "growth rescue (activation)": "inactive: -7.06%"},
      {"smiles": "O=C(c1cccnc1)N1N=C(C2CCCCC2)CC1(O)C(F)(F)F", "note": "(stereo unspecified)", "growth rescue (activation)": "inactive: -8.93%"},
      {"smiles": "CCCN(CCC)Cc1cc(=O)oc2cc3c(cc12)CCC3", "growth rescue (activation)": "inactive: 4.33%"},
      {"smiles": "O=C(CC1C(=O)NCCN1Cc1cccc(Oc2ccccc2)c1)NCc1cccnc1", "note": "(stereo unspecified)", "growth rescue (activation)": "inactive: 10.6%"},
      {"smiles": "OC(c1ccc(Cl)cc1)c1ncc(-c2cccc(F)c2)[nH]1", "note": "(stereo unspecified)", "growth rescue (activation)": "inactive: 12.9%"},
      {"smiles": "O=C1CCNc2ccc(-c3ccccc3)cc21", "growth rescue (activation)": "inactive: 27.7%"},
      {"smiles": "O=c1[nH]c2ccc(NS(=O)(=O)c3ccc(Cl)cc3)cc2[nH]1", "growth rescue (activation)": "inactive: 3.24%"},
      {"smiles": "CN1CCN(C(=O)/C(=C/c2ccccc2F)NC(=O)c2ccccc2)CC1", "growth rescue (activation)": "inactive: -16.1%"},
      {"smiles": "Cc1ccc(C(=O)COC(=O)C(C)N2C(=O)C3C4C=CC(C4)C3C2=O)cc1", "note": "(stereo unspecified)", "growth rescue (activation)": "inactive: 2.25%"},
      {"smiles": "CC(NC(=O)C(=O)N/N=C/c1ccc(Cl)cc1)c1ccccc1", "note": "(stereo unspecified)", "growth rescue (activation)": "inactive: -5.49%"},
      {"smiles": "Cc1nc2scc(C)n2c(=O)c1S(=O)(=O)NCCc1ccc(Cl)cc1", "growth rescue (activation)": "inactive: -0.879%"},
      {"smiles": "CCN(c1ccccc1)S(=O)(=O)c1ccc(N)c(OC)c1", "growth rescue (activation)": "inactive: 5.39%"},
      {"smiles": "COc1cc(-c2noc(CCCC(=O)Nc3cccnc3)n2)cc(OC)c1OC", "growth rescue (activation)": "inactive: 13.5%"},
      {"smiles": "Cc1nc2cc(CO)ccc2s1", "growth rescue (activation)": "inactive: 3.76%"},
      {"smiles": "COc1ccccc1CC(=O)Nc1ccc(F)cc1F", "growth rescue (activation)": "inactive: 18.4%"},
      {"smiles": "CCN(CC)S(=O)(=O)c1cc(NC(=O)C(C)N2CCc3ccccc32)ccc1C", "note": "(stereo unspecified)", "growth rescue (activation)": "inactive: 13.5%"},
      {"smiles": "CN(C)/C=C(/C(=O)c1ccc(Cl)c(Cl)c1)S(C)(=O)=O", "growth rescue (activation)": "inactive: 13.8%"},
      {"smiles": "COc1ccc(C(=O)Nc2ccccc2)cc1NC(=O)c1cccs1", "growth rescue (activation)": "inactive: 1.52%"},
      {"smiles": "CNC(=O)NC(=O)COc1c(F)c(F)cc(F)c1F", "growth rescue (activation)": "inactive: -25.9%"}
    ]}
  ]
}
